# Reference: PubChem BioAssay AID686978 (National Center for Advancing Translational Sciences (NCATS), 2013)
# Several values for one entry are separate records, joined by “and”; a condition that tells them apart may be missing. Identical values can stand only once. The whole screen tested about 420,000 compounds, of which about 64,000 (15%) were called active. Inconclusive results, whose numbers are uncertain, are shown with a selection of clear calls. Calls come from the whole dose curve; as a rule, active = well fitted inhibition curve with a large enough effect; inconclusive = small, poorly fitted or top-dose-only effect; inactive = flat fitted curve, though single readings scatter. Potencies of inconclusive entries are left out as doubtful fits. Peptide text beside a SMILES is read from it.
# Experiment: qHTS for Inhibitors of human tyrosyl-DNA phosphodiesterase 1 (TDP1): qHTS in cells in absence of CPT; note: nearly all actives have a fitted effect of over 55% in size
# Conditions: DT40 Tdp1-/- hTDP1 cells, no CPT, ATP luminescence, 48 h; activity change, negative = growth inhibition: at 46.2 µM (top of the series)
# Outline: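 A cellular qHTS used chicken DT40 cells lacking endogenous Tdp1 but carrying stably transfected human TDP1. Compounds were applied without camptothecin, and cell growth kinetics were judged by ATP-dependent luminescence after ≥48 hr.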
# % is set by controls: 0 for no effect and ±100 for the full control effect; potency is the fitted concentration of half-maximal effect; tags give direction and shape of the fitted curve.
SMILES,Potency,"activity change, negative = growth inhibition"
CCOc1ccc(C[C@H]2NC(=O)CCSSC[C@@H](C(=O)N3CCC[C@H]3C(=O)N[C@@H](CCCN)C(=O)NCC(N)=O)NC(=O)[C@H](CC(N)=O)NC(=O)[C@H]([C@@H](C)O)NC(=O)[C@H]([C@@H](C)CC)NC2=O)cc1,inactive,–
COc1ccc(C(=O)NCCCNc2nc3cc(C)cc(C)c3cc2C#N)cc1,active: 20.6 µM,–
CCC1CCCCN1C(=O)CSc1n[nH]c(-c2ccccc2)n1 (centres undefined),"inconclusive [inhibitor, single point]",–
CC(=O)Nc1ccc(S(=O)(=O)NC2(C(F)(F)F)C(=O)NC(C)=C2C#N)cc1 (centres undefined),inactive,–
CN(c1ccccc1C(=O)Nc1ccccc1C(=O)NCc1ccco1)S(C)(=O)=O,inactive,–
Clc1ccccc1CN(Cc1ccccc1)C(c1cccs1)c1nnnn1C1CCCC1 (centres undefined),active: 20.6 µM,–
COCCC(=O)N1CCC(Oc2ccc(C(=O)N(C)C3CCCCC3)cc2)CC1,"inconclusive [inhibitor, single point]",–
O=C1NC2(CCCCO2)CO1 (centres undefined),inactive,–
Cn1cnnc1SCC(=O)Nc1ccc2nc(SCc3cccc4ccccc34)sc2c1,"inconclusive [inhibitor, single point]",–
O=c1[nH]c2ccccc2n2c(-c3ccccc3)nnc12,active: 18.4 µM and active: 11.2 µM,–
COc1ccc(N(Cc2nnc3n2CCCCC3)C(=O)Nc2ccc(Cl)cc2)cc1Cl,inactive,–
CN1CCc2c(sc3c2c(=O)n(-c2ccc(Cl)cc2)c2nncn32)C1,"inconclusive [inhibitor, single point]",–
Fc1ccccc1-n1ncc2c1ncn1nc(COc3ccc(Cl)cc3)nc21,inactive,–
O=C(c1ccc(=O)[nH]c1)N(c1ccccc1)C(CCc1ccccc1)c1nc2ccccc2[nH]1 (centres undefined),"inconclusive [inhibitor, single point]",–
CCC(=O)Nc1ccc(S(=O)(=O)N2CCc3ccccc3C2)cc1,"inconclusive [inhibitor, partial curve]",–
Cc1ccc(C(=O)c2cn[nH]c2-c2ccccc2O)cc1,"inconclusive [inhibitor, single point]",–
N/C(=N\OC(=O)c1ccccc1Cl)c1cccc([N+](=O)[O-])c1,–,inconclusive: -24% [inhibitor]
CC1(C)CC(CNCCC(c2ccc(F)cc2)c2ccco2)CCO1 (centres undefined),active: 14.6 µM,–
Cc1cc(OCCCN2CCN(Cc3ccccc3)CC2)ccc1[N+](=O)[O-],active: 11.6 µM,–
COc1ccc(OC)c(NC(=O)c2ccc3nc(C(C)C)oc3c2)c1,inactive,–
Cc1cccc(N2CCN(S(=O)(=O)c3nnc(NC(=O)c4ccc(Cl)cc4)s3)CC2)c1,"inconclusive [inhibitor, full curve, poor fit]",–
CCOC(=O)C1(Cc2ccc(OC)cc2)CCN(C(=O)c2cc(C)nn2C)CC1,active: 18.4 µM,–

SMILES,Potency,"activity change, negative = growth inhibition"
COc1ccc(C2c3[nH]c4ccccc4c3CCN2CCCn2cccn2)c(F)c1 (centres undefined),"inconclusive [inhibitor, single point]",–
O=C1c2ccccc2NC(c2ccc(O)c(O)c2)N1c1ccccc1Cl (centres undefined),"inconclusive [inhibitor, single point]",–
CCCCC(CCC(=O)Nc1ccc(C(=O)OCC)cc1)C(=O)O (centres undefined),inactive,–
CC(=O)c1cccc(NC(=O)Cn2c(-c3cncs3)nc3ccccc32)c1,"inconclusive [inhibitor, single point]",–
Cc1ccc(NC(=O)c2cccc(NC3=NC4CS(=O)(=O)CC4S3)c2)cc1 (centres undefined),inactive,–
O=S(=O)(NCC(c1ccco1)N1CCCCC1)c1ccccc1C(F)(F)F (centres undefined),"inconclusive [inhibitor, partial curve]",–
C#CCCC/C(=C\C(=O)N(C)[C@H](C(=O)N(C)[C@H](C(=O)N(C)[C@H](C(=O)N(C)[C@H](C(N)=O)C(C)C)C(C)C)C(C)C)C(C)C)OC (HELM PEPTIDE1{[C#CCCC/C(=C\C(=O)[*:2])OC].[meV].[meV].[meV].[meV].[am]}$$$$V2.0),active: 18.4 µM,–
CC(Nc1oc(-c2ccco2)nc1C#N)c1ccccc1 (centres undefined),"inconclusive [inhibitor, single point]",–
COc1ccc(-c2cc(=O)oc3c(C)c(OCC(=O)NCCCn4ccnc4)ccc23)cc1,"inconclusive [inhibitor, single point]",–
Cc1ccccc1C(=O)NCC(=O)OCC(=O)NNC(=O)c1ccccc1F,–,inconclusive: -13.7% [inhibitor]
Cc1ccccc1OCc1nc2ccccc2c(=O)n1N,"inconclusive [inhibitor, partial curve, poor fit]",–
COc1ccc(C2/C(=C(/O)c3ccc4c(c3)CC(C)O4)C(=O)C(=O)N2Cc2ccncc2)cc1 (centres undefined),inactive,–
Cc1ccc(C)c(N2CCN(CC3CC=CCC3)CC2)c1 (centres undefined),"inconclusive [inhibitor, single point]",–
O=C(NCc1ccc(F)cc1)c1cc(C2CCCN(C(=O)C3CCCCC3)C2)on1 (centres undefined),"inconclusive [inhibitor, partial curve]",–
COc1ccccc1NC(=O)c1sc2nc(C)c(C(=O)Nc3ccc(Cl)cc3)c(-c3ccc(Br)cc3)c2c1N,active: 16.4 µM,–
CC(C)(C)C(=O)O/N=C(\N)c1ccc(Oc2cc(Cl)cc(Cl)c2)c([N+](=O)[O-])c1,"inconclusive [inhibitor, single point]",–
Cc1ccc(NC(=O)c2ncn(CC(=O)NCc3ccccc3)n2)cc1C,inactive,–
COc1ccc(NC(=O)CCCCC(=O)Nc2ccc(OC)cc2OC)c(OC)c1,inactive,–
COC(=O)C1=C(C)N(CCCC(=O)O)C(=O)NC1c1cccs1 (centres undefined),inactive,–
COCCNC(=O)c1ccc(Cl)c(S(=O)(=O)Nc2cccc(C)c2C)c1,inactive,–
Cc1ccc(S(=O)(=O)Nc2cccc(-c3ccc(N4CCCCCC4)nn3)c2)c(C)c1,"inconclusive [inhibitor, single point]",–
O=C(c1cc(Cl)ccc1[N+](=O)[O-])n1cnc2ccccc21,inactive,–
